Whole data set: some 33,000 sequences, median “E-score (-0.5 to 0.5)” near -0.035, cut for the highest 2% near 0.35. This is one part of the list.
Biological target: T1, Pdr3 (UniProt P33200)
T1 sequence: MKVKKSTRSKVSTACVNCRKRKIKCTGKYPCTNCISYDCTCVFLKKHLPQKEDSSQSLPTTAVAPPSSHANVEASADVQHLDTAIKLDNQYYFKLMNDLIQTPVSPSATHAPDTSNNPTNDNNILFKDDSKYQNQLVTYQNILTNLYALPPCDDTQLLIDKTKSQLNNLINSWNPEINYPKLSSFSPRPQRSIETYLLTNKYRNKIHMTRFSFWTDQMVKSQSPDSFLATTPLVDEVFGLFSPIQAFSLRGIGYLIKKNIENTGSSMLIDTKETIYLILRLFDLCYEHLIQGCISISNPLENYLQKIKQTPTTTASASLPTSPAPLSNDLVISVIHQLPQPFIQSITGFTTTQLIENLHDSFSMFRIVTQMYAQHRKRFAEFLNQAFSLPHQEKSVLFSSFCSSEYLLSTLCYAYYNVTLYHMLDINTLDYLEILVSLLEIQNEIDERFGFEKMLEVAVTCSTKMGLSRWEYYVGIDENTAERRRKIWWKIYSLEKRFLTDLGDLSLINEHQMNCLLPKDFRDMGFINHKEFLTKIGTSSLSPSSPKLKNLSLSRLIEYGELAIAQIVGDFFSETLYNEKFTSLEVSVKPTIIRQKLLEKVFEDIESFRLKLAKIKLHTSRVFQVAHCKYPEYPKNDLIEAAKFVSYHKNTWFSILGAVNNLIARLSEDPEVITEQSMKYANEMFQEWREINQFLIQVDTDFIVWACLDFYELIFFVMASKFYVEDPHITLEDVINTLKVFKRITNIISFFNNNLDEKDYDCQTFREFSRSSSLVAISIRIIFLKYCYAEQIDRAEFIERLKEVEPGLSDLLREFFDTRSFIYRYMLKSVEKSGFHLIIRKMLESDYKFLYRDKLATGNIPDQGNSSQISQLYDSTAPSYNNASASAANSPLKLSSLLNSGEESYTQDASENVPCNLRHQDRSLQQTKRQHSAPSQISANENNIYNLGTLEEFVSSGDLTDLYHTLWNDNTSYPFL
Assay: PBM E-score (8-mer binding enrichment) (E-score (-0.5 to 0.5)); higher = stronger / more preferred TF binding; most listed sequences are background and not binding sites
Settings: protein concentration: 200 nM; construct: GST-full length
Procedure, shortened: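 Yeast transcription factors carrying a GST tag, as full-length proteins or DNA-binding domains, were produced by PURExpress in vitro transcription/translation. About 100-200 nM protein was applied to universal all-10-mer Agilent arrays, double-stranded by primer extension on fresh or once-stripped slides. Bound protein was detected with fluorescent anti-GST, and scans were normalised with masliner. The Universal PBM Analysis Suite gave each ungapped eight-base word, pooled with its reverse complement, an E-score, a modified Wilcoxon-Mann-Whitney statistic.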

Row | Sequence | PBM E-score
1 | ATGTCTGG | 0.0897
2 | AGAATTCT | 0.0674
3 | CCTGTCGC | -0.0933
4 | AGGGAATG | -0.0936
5 | GTGACAGA | -0.117
6 | ACTGAACG | -0.0935
7 | AACAGTAC | -0.107
8 | CTTGAGGC | -0.11
9 | ATTGTACA | -0.16
10 | TTATGCAA | -0.179
11 | AAGTACGC | -0.238
12 | ACGCTGGC | -0.0917
13 | GACTGTGC | -0.211
14 | CCCCTGCG | -0.0867
15 | CCGACCCA | 0.221
16 | CGCCGGCA | 0.339
17 | CAAAGGCC | -0.0787
18 | ACGGGCCA | 0.117
19 | AAATCTTC | 0.0515
20 | GAATTCCA | 0.142
21 | ACCTGCCT | -0.184
22 | ATACGGAA | 0.439
23 | CTAGATAG | -0.17
24 | CCGATCGA | 0.0662
25 | AGTCACGC | -0.0659

Row | Sequence | PBM E-score
26 | TCCCAGGA | -0.222
27 | GATAGAAA | -0.133
28 | TGGCCCCA | -0.151
29 | ACTTGGGC | -0.0423
30 | CCTAAGAG | -0.171
31 | AGAGAACC | -0.0968
32 | ATTCCCGG | 0.393
33 | AGGTAGAG | -0.253
34 | CGGCAGTA | 0.143
35 | ACAGCGAC | -0.245
36 | AAGCTTGC | -0.154
37 | GGACGCTA | -0.104
38 | CCGTAGAA | -0.0248
39 | ACCGCGAC | 0.082
40 | GGCCCATA | -0.00801
41 | TTAAGAAA | -0.126
42 | AAAAATAA | -0.0349
43 | CACGTGGG | -0.147
44 | AGAAAATA | 0.0181
45 | CCCGGTCC | 0.194
46 | GCTCAAGC | -0.213
47 | AAGCCCTA | -0.27
48 | CTTAACAC | -0.0828
49 | CCCTGCAA | -0.127
50 | ACGGGAGT | 0.209

Row | Sequence | PBM E-score
51 | CACCTCGC | 0.0461
52 | AGTTATTG | -0.07
53 | CAAGCGTA | -0.34
54 | GTTATCGA | 0.146
55 | ACTTAAAA | -0.127
56 | ATGCGCGC | 0.275
57 | ACGGTTGC | -0.0793
58 | AAGGGGCC | -0.00267
59 | CTGGCCAA | 0.0275
60 | CGGCTATC | 0.151
61 | CACATTCC | 0.16
62 | CCCATAGG | -0.0362
63 | GTATCAAA | -0.107
64 | CCTTGGCA | -0.198
65 | ATTCCCGC | 0.348
66 | CCCGCTGA | 0.119
67 | AGGAGCCG | 0.0342
68 | CCCTATTC | 0.106
69 | AGAGAACA | -0.0756
70 | ACATAGCC | 0.16
71 | AACTATTC | 0.126
72 | ACTCCACC | -0.0705
73 | GGTGGTCA | 0.0287
74 | TGTGGAAA | 0.0299
75 | ATCTTTTC | -0.0261

Row | Sequence | PBM E-score
76 | AGGCAGAG | -0.287
77 | AGAACAAT | 0.0944
78 | CGTATAGC | 0.079
79 | ATTGGGAG | -0.086
80 | ACCAAAGA | 0.06
81 | TAGCAATA | -0.115
82 | CACTACTC | 0.0868
83 | CCAACACC | -0.0533
84 | AAAGTGTG | -0.141
85 | AAAACTCC | -0.0074
86 | GTCGTAAA | -0.0422
87 | CCAAATGA | -0.00462
88 | AGCTGGGC | -0.236
89 | GCAGTCAA | -0.235
90 | CGAACGCC | 0.0472
91 | AGCGGAAT | 0.392
92 | GATCATTA | -0.0398
93 | ACACGGTC | 0.0432
94 | AGTTACAG | -0.111
95 | CACGATAG | -0.0914
96 | AATATTTA | 0.103
97 | ATGCACTG | -0.059
98 | AAATTCGA | -0.2
99 | GGCATTGA | 0.0887
100 | AGATCGAC | -0.076

Row | Sequence | PBM E-score
101 | TCCACACA | -0.0475
102 | CTAAAAAG | -0.272
103 | CAGTGTCG | -0.177
104 | GCCAAGGC | -0.11
105 | ACCGTATA | -0.214
106 | AGACGGAT | 0.249
107 | ATAGAAAA | -0.14
108 | AAGCCGCT | 0.088
109 | CAGAGGCA | -0.133
110 | CGAATTCG | 0.166
111 | GAACGCGA | 0.121
112 | AGAGCAGA | -0.178
113 | ATATGTAC | -0.00303
114 | CGCGCACC | 0.0766
115 | CCTGAATA | -0.0245
116 | CACACAGC | -0.0259
117 | AATATTGC | 0.118
118 | AATGACGA | -0.207
119 | CCTTGTCA | -0.212
120 | AGCGCTCA | -0.127
121 | AAATGTGA | -0.173
122 | AGATACTG | -0.0657
123 | ACTCTCAC | -0.00506
124 | CATAATAA | -0.109
125 | AATTGCGT | 0.139

Row | Sequence | PBM E-score
126 | CCGTGCAG | 0.202
127 | GACTACTC | 0.115
128 | ATCTTGCA | 0.116
129 | CCGGACAC | 0.366
130 | GAAGCACC | -0.108
131 | CGTCCAGA | -0.0748
132 | GCATATCC | -0.00296
133 | ACGTGTAC | -0.317
134 | CTCGCCGA | 0.179
135 | AGTATAAT | 0.136
136 | ATCGGATC | 0.301
137 | AGGCGTTA | -0.171
138 | CAATCCAA | -0.0633
139 | CAAAGATA | -0.0907
140 | TACTACCA | -0.184
141 | TCGCGTCA | 0.0486
142 | GTCCATTA | -0.0206
143 | CCCGGAGC | 0.39
144 | ATGTCTGC | -0.0315
145 | AACGACCC | 0.142
146 | GCACTATA | -0.0101
147 | CCGCCATA | 0.288
148 | CATCTCCG | 0.377
149 | CCCACTCC | 0.0193
150 | AAGCCACA | -0.204

Row | Sequence | PBM E-score
151 | ATTCTTCC | 0.159
152 | GCACACCA | 0.0828
153 | AAACTGGG | -0.0614
154 | CTATGCCC | 0.0437
155 | ATTACGCA | -0.103
156 | CGAGGTCC | 0.299
157 | AAACCTCT | -0.151
158 | ATTCCATG | 0.212
159 | GACCATCC | 0.109
160 | GATATACA | 0.0781
161 | AGAGTCCG | 0.166
162 | ACCTTGTC | -0.247
163 | AGAGTTCC | 0.203
164 | ACTCCGTG | 0.282
165 | CGCGATAA | -0.00886
166 | CAGATGGA | 0.108
167 | ACTACACA | 0.0141
168 | AACAGGTC | -0.108
169 | ATGAAAAC | 0.175
170 | TGACAGAA | -0.194
171 | CCGATAAA | 0.177
172 | CACAGACA | -0.154
